These results are taken from the supplement of paper PMC11417369.

The list shows a part of the results.

This assay deals with PfAP2-HC AP2 domain (GST-tagged). The experiment in a line: gcPBM binding intensity (ln(normalized median fluorescence intensity)); higher = stronger DNA binding. A digest of the protocol:
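For binding intensity, the highest Masliner-normalised natural-log median intensity across replicate spots of either probe orientation was taken. Protein bound to the array was stained with Alexa488 anti-GST antibody and scanned at 488 nm. The protein, GST-tagged P. falciparum DNA-binding domains from E. coli at about 25 μg on average, had been applied for 1 h to an Agilent 4 × 180k array of primer-extended double-stranded 36-bp intergenic genomic probes and negative controls.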
As for ATATATATTATCATTGTGCACTTATTTATATACCTT, the “gcPBM binding intensity (ln)” value worked out at 10.

Consider “ATATTTTATTATTGTTGTACTTTTTTTTTTTGATTG [XGTACX_site4091]”, for which the “gcPBM binding intensity (ln)” value was found to be 9.65.

For the sequence “ATAATATGAAAACACACACACACACTAATAAAAAAA [CACACA_site8617]”, the “gcPBM binding intensity (ln)” value was found to be 11.5.

With “TTTAATAAATAAATAAATAAAATATATTAAAAACCA [CACACA_negctrl_site80]”, the “gcPBM binding intensity (ln)” value came out at 9.51.

As for “GCAACACAAAAAATTACACACAAAAAAAATATATTA [CACACA_site916]”, the “gcPBM binding intensity (ln)” value came out at 9.86.

As to “ATACATAAATACAAACGTACATACATACATACATAC [XGTACX_site7824]”, the “gcPBM binding intensity (ln)” value was 9.88.

In the case of “CAGCTCTTAAGAATTACACACATATACACATATATA [CACACA_site7524]”, the “gcPBM binding intensity (ln)” value stood at 9.95.

Turning to “GAAGAAAAAAAATATACACACATACGATCATACATA [CACACA_site5227]”, the “gcPBM binding intensity (ln)” value is 10.2.

For the sequence “TCCTTTATTTTTAAAGTGCATATACATGTACATTAT [GTGCAC_site9445]”, the “gcPBM binding intensity (ln)” value was found to be 9.71.

On to “ATTCAAAAGATGTATACACACATGTGTATAATATAA [CACACA_site7197]”, for which the “gcPBM binding intensity (ln)” value was found to be 9.99.

“AATAATATATATATAATACACACTATTATAATCACA [CACACA_site1310]”: the “gcPBM binding intensity (ln)” value came out at 9.79.

Consider “TTTTAATGTACCAGTGTGCACCTTGCGTACATATTA [GTGCAC_site9957]”, for which the “gcPBM binding intensity (ln)” value stood at 9.66.

Regarding “TTATACAAATTCATGGGTACAAACAAACATATATCA [XGTACX_site6237]”, the “gcPBM binding intensity (ln)” value amounted to 9.67.

On to “TATACCTATAAATACACACACATATAAATAAATATA [CACACA_site6153]”, for which the “gcPBM binding intensity (ln)” value is 10.2.

In the case of “AAAATATATACTCCATCACACACCAAAAAGAAAAAA [CACACA_site2542]”, the “gcPBM binding intensity (ln)” value worked out at 10.5.

On to “AATAATAAAAAATATACACACATATATATATATATA [CACACA_site25]”, for which the “gcPBM binding intensity (ln)” value was 9.74.

On to “AAAAAAAAAAAAAAATGTACATATGGTATGCATATA [XGTACX_site3225]”, for which the “gcPBM binding intensity (ln)” value was found to be 9.72.

“GCTTATAAAGGCAGAAGTACTGTATTCCTATATATA [XGTACX_site8865]”: the “gcPBM binding intensity (ln)” value was determined as 9.51.

Regarding “TTGGCATACGGACACACACACACACCCAGACATATA [CACACA_site4492]”, the “gcPBM binding intensity (ln)” value came to 10.4.

For the sequence “TTTAAATATTTTAATACACACACGATATGTACAAAA [CACACA_site4455]”, the “gcPBM binding intensity (ln)” value amounted to 9.78.

On to “TACAATGAAAAAATAACATGCAATTATATTTCTCTT [TGCATGCA_site833]”, for which the “gcPBM binding intensity (ln)” value came out at 9.52.

On to “ACGTGATAAATAAATACATGCATAGAAAGATGCATA [TGCATGCA_site91]”, for which the “gcPBM binding intensity (ln)” value amounted to 9.61.

“TATATATATATATATTGTACTAGTGCATATATATAC [XGTACX_site7926]”: the “gcPBM binding intensity (ln)” value worked out at 9.61.

Turning to ATTAAATTTCCTTGAGTGCACATTTTGTTAAAATAT, the “gcPBM binding intensity (ln)” value was 9.64.

In the case of “ATAACATATTTCTTTTGTACTCAAAATAAAATTAAT [XGTACX_site2479]”, the “gcPBM binding intensity (ln)” value came to 9.49.
